# According to the supplement of paper PMC4967469:
# By IC50 is meant the dose at which the fit gives 50% viability; where the fit passes the top or lowest dose, that dose stands as a limit. The AUC spans the tested range (256-fold, ending at the top dose) of the same fit; the more sensitive the line, the further below 1. Any top dose called inferred comes from the curve model; the source does not state it.
# Compound: CCCCCCCCCCCC1=C(O)C(=O)C=C(O)C1=O [Embelin]
# Experiment: Viability of human cancer cell lines after 72 h of drug (GDSC screen)
# Settings: top dose 32 µM; top dose inferred
# Procedure: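 Human cancer cell lines in 384-well plates, medium with 10% serum, drug for 72 h over a 256-fold dose range (nine 2-fold or five 4-fold steps up to the top dose). Adherent lines were fixed and stained with the nucleic acid dye Syto60, suspension lines read with resazurin; signal relative to control wells, capped at 0 and 100%. One two-parameter sigmoid per drug and line, fitted in a mixed model over all curves with the slope shared within a line.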
Cell Line,AUC,IC50 [µM]
"KYSE-520 (oesophagus, adherent)",0.773,17
"MDA-MB-175-VII (breast, adherent)",0.843,26.3
"RH-41 (rhabdomyosarcoma, adherent)",0.796,12.3
"MFE-296 (endometrium, adherent)",0.817,19.6
"GOTO (neuroblastoma, adherent)",0.85,29.6
"NCI-H1703 (lung adenocarcinoma, adherent)",0.831,26.6
"NCI-H747 (large intestine, adherent)",0.783,16.6
"SHP-77 (small cell lung carcinoma, semi-adherent)",0.938,> 32
"NCI-H2171 (small cell lung carcinoma, suspension)",0.965,> 32
"PC-3 (prostate, adherent)",0.797,19
"HCC1428 (breast, adherent)",0.865,> 32
"JEG-3 (urogenital system, adherent)",0.795,13.2
"SK-ES-1 (Ewing sarcoma, semi-adherent)",0.749,11
"CTB-1 (B-cell lymphoma, suspension)",0.876,> 32
"WM278 (melanoma, adherent)",0.745,11.1
"DND-41 (T-cell leukaemia, suspension)",0.648,4.85
"EGI-1 (biliary tract, adherent)",0.841,> 32
"639-V (bladder, adherent)",0.792,12.2
"EB-3 (Burkitt lymphoma, suspension)",0.803,19
"NCI-H841 (small cell lung carcinoma, adherent)",0.754,10.8
"SNB75 (glioma, adherent)",0.807,26.7
"LN-18 (glioma, adherent)",0.743,8.34
"EW-16 (Ewing sarcoma, adherent)",0.625,4.49
"TE-9 (oesophagus, adherent)",0.717,–
"SW1271 (small cell lung carcinoma, adherent)",0.716,9.09
"RPMI-7951 (melanoma, adherent)",0.861,–

Cell Line,AUC,IC50 [µM]
"CCRF-CEM (lymphoblastic leukaemia, suspension)",0.55,2.68
"MN-60 (B-cell leukaemia, suspension)",0.739,9.98
"KLE (endometrium, adherent)",0.838,> 32
"HOS (osteosarcoma, adherent)",0.727,7.74
"IPC-298 (melanoma, adherent)",0.791,14.1
"NCI-H1915 (large cell lung carcinoma, adherent)",0.737,9.65
"HEL (acute myeloid leukaemia, semi-adherent)",0.791,11.8
"SU-DHL-4 (B-cell lymphoma, suspension)",0.711,6.47
"LXF-289 (lung adenocarcinoma, adherent)",0.74,9.57
"REH (B-cell leukaemia, suspension)",0.745,9.73
"BB65-RCC (kidney, adherent)",0.731,10.2
"SF268 (glioma, adherent)",0.693,7.29
"C3A (liver, adherent)",0.833,21.8
"KMH-2 (thyroid, adherent)",0.749,9.4
"Hs766T (pancreas, adherent)",0.613,4.52
"FTC-133 (thyroid, adherent)",0.853,28.9
"A4-Fuk (B-cell lymphoma, suspension)",0.883,> 32
"SU-DHL-1 (anaplastic large cell lymphoma, suspension)",0.963,> 32
"NCI-H2052 (mesothelioma, adherent)",0.728,10.9
"NCI-H1838 (lung adenocarcinoma, adherent)",0.955,> 32
"SLVL (B-cell lymphoma, suspension)",0.745,10.6
"MDA-MB-361 (breast, adherent)",0.759,11.1
"EFO-21 (ovary, adherent)",0.796,23.1
"TE-10 (oesophagus, adherent)",0.773,12.2
"SR (lymphoid neoplasm, suspension)",0.854,21.3
"COLO-205 (large intestine, suspension)",0.702,7.36

Cell Line,AUC,IC50 [µM]
"NB14 (neuroblastoma, adherent)",0.692,6.65
"NCI-H1355 (lung adenocarcinoma, adherent)",0.744,14
"K2 (melanoma, adherent)",0.732,11.3
"JAR (urogenital system, adherent)",0.957,> 32
"MKN45 (stomach, adherent)",0.683,7.51
"TYK-nu (ovary, adherent)",0.801,16.9
"HSC-2 (head and neck, adherent)",0.722,8.03
"NCI-H2141 (small cell lung carcinoma, suspension)",0.867,27.4
"SK-HEP-1 (liver, adherent)",0.771,11.5
"NCI-H1437 (lung adenocarcinoma, adherent)",0.678,6.43
"FU-OV-1 (ovary, adherent)",0.779,17.5
"MG-63 (osteosarcoma, adherent)",0.72,9.4
"KOSC-2 (head and neck, adherent)",0.867,31.1
"G-MEL (melanoma, adherent)",0.862,26.7
"HARA (lung squamous cell carcinoma, adherent)",0.8,18.6
"SUP-M2 (anaplastic large cell lymphoma, suspension)",0.621,3.96
"NCI-H1993 (lung adenocarcinoma, adherent)",0.893,> 32
"SCC-25 (head and neck, adherent)",0.869,> 32
"HH (T-cell leukaemia, suspension)",0.882,> 32
"EW-1 (Ewing sarcoma, semi-adherent)",0.888,31
"SK-N-DZ (neuroblastoma, adherent)",0.843,22.2
"D-392MG (glioma, adherent)",0.807,24.1
"WM1552C (melanoma, adherent)",0.72,8.46
"SK-MEL-3 (melanoma, adherent)",0.808,19.8
"ACHN (kidney, adherent)",0.802,18.4
"A2780 (ovary, semi-adherent)",0.787,14.4

Cell Line,AUC,IC50 [µM]
"H2818 (mesothelioma, adherent)",0.962,> 32
"SKN (uterus, adherent)",0.777,15.8
"VAL (B-cell lymphoma, suspension)",0.851,24.6
"NEC8 (testis, adherent)",0.681,5.87
"Calu-6 (lung adenocarcinoma, adherent)",0.652,5.66
"SK-MEL-24 (melanoma, adherent)",0.609,4.24
"SU-DHL-6 (B-cell lymphoma, suspension)",0.928,28.6
"CAL-62 (thyroid, adherent)",0.701,7.1
"CAL-29 (bladder, adherent)",0.791,15.5
"G-401 (kidney, adherent)",0.724,9.3
"MOLP-8 (myeloma, suspension)",0.781,12.8
"EW-11 (Ewing sarcoma, adherent)",0.887,> 32
"H2722 (mesothelioma, adherent)",0.779,15.7
"HuO-3N1 (osteosarcoma, adherent)",0.898,> 32
"RL (B-cell lymphoma, suspension)",0.968,> 32
"A2058 (melanoma, adherent)",0.52,2.25
"T-24 (bladder, adherent)",0.94,> 32
"COLO-783 (melanoma, adherent)",0.965,> 32
"KARPAS-299 (anaplastic large cell lymphoma, suspension)",0.973,> 32
"SK-MEL-30 (melanoma, adherent)",0.773,13.2
"EW-18 (Ewing sarcoma, suspension)",0.747,10.9
"OAW-28 (ovary, adherent)",0.794,19.3
"PCI-6A (head and neck, adherent)",0.78,12.9
"JIMT-1 (breast, adherent)",0.777,13.9
